Reference: PubChem BioAssay AID886 (National Center for Advancing Translational Sciences (NCATS), 2007)
Screen size: about 73,000 compounds; about 2,500 (3.4%) were called active. The shares of active, inactive and inconclusive entries below differ from those in the screen. Calls follow the shape of the dose curve; as a rule, active = well fitted inhibition curve with a large enough effect; inconclusive = small, poorly fitted or top-dose-only effect; inactive = no such curve, though single readings can be large or run the other way. A potency beside an inconclusive call is a rough fit, not a confirmed value.

target: 3-hydroxyacyl-CoA dehydrogenase type-2 (Homo sapiens) (UniProt Q99714); test: qHTS Assay for Inhibitors of HADH2 (Hydroxyacyl-Coenzyme A Dehydrogenase, Type II); conditions: recombinant HADH2, NADH fluorescence, beta-hydroxybutyryl-CoA; series mostly up to 57.1 µM; also: nearly all actives have a fitted effect of over 60% in size
Sequence of UniProt Q99714 (Q99714 whole entry, looked up): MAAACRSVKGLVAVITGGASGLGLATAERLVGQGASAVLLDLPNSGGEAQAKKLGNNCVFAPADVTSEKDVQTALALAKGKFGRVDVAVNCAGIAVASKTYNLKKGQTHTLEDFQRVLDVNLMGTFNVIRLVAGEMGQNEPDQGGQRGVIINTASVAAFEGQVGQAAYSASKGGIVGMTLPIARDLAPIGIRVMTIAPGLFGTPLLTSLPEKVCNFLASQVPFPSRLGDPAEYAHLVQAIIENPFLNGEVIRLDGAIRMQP
Sequence of UniProt Q99714 (Q99714 whole entry, looked up): as above
In short: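 Read-out: 360 nm excitation, 450 nm emission, kinetic over 4 min. Conditions: His-tagged human HADH2 20 nM, pH 9.0 Tris with Tween-20, 1 mM NAD+, 90 uM beta-hydroxybutyryl-CoA.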
Potency is read from the fitted curve at half-maximal effect; tags tell the direction and shape of the fitted curve.

SMILES | Potency
CCc1ccc(Cn2nnc(C(=O)Nc3ccc(OC)cc3OC)c2N)cc1 | active: 25.1 µM
C=CCOc1ccc(/C(O)=C2\C(=O)C(=O)N(CCCOC)C2c2ccc(O)c(OC)c2)cc1 (configuration not stated) | inconclusive: 20 µM [inhibitor, partial curve]
Clc1nnc2ccc(-c3ccccc3)nn12 | inconclusive: 3.98 µM [inhibitor, single point]
COC(=O)N1CCC2(CCCN(Cc3ccccc3)C2)CC1 | inactive
Cc1noc(/C=C/N(C)C)c1S(=O)(=O)N1CCc2ccccc21 | inconclusive: 31.6 µM [inhibitor, single point]
COC(=O)c1sc(=S)sc1C(=O)OC | inconclusive: 3.16 µM [inhibitor, full curve]
c1ccc(-c2nc(CSc3nnc(-c4cccs4)o3)cs2)cc1 | inconclusive: 3.98 µM [inhibitor, single point]
CCOC(=O)C1CCN(C(=O)CNS(=O)(=O)c2cccs2)CC1 | inactive
Cc1cc(N2CCOCC2)nc2ccc(NC(=O)CCC(=O)N3CCCC(C)C3)cc12 (configuration not stated) | active: 25.1 µM
Cc1ccc(-n2c(C)cc(C)c(C#N)c2=O)cc1Cl | inconclusive: 31.6 µM [inhibitor, single point]
CN1CCN(c2ncnc3ccc(-c4ccccc4C#N)cc23)CC1 | inactive
Cc1cc(NCc2ccco2)n2c(nc3ccccc32)c1C#N | inconclusive: 39.8 µM [inhibitor, single point]
COCCn1c(SCC(=O)Nc2sc(C)c(C)c2C#N)nnc1-c1ccc(OC)cc1 | inactive
Cc1ccc(C(=O)Nc2ccccc2C(=O)NCc2ccco2)cc1S(=O)(=O)N1CCCCC1 | inconclusive: 31.6 µM [inhibitor, single point]
OCCNc1nc2ccc(Cl)cc2[nH]1 | inactive
O=C1C[C@H](c2ccccc2)Oc2cc(O)cc(O)c21 | inconclusive: 25.1 µM [inhibitor, partial curve]
CC(=O)N1CCc2cc(C(=O)CN3CCN(c4ccccc4F)CC3)ccc21 | inactive
Cn1nnnc1SCC(=O)c1ccco1 | inconclusive: 39.8 µM [inhibitor, single point]
CCOC(=O)CNc1ccc2c(c1)OCO2 | inconclusive: 10 µM [inhibitor, partial curve]
O=C(Nc1ccc(Cl)cn1)c1cc2ccccc2o1 | inactive
O=C(CSc1ncn(-c2ccccc2)n1)Nc1nc2ccccc2s1 | inconclusive: 31.6 µM [inhibitor, single point]
O=C(Nc1cc(N2CCOCC2)ncn1)NC1(C(F)(F)F)Oc2ccc(Cl)cc2O1 (configuration not stated) | active: 3.16 µM
